In the RNAGym collection of RNA variant scans (doi:10.1073/pnas.2313332121):
Variants at the background level are over-represented here.

B1: TPR 5TU (parent)
chain: GGAUCUUCUCGAUCUAACAAAAAAGACAAAUCUGCCACAAAGCUUGAGAGCAUCUUCGGAUGCAGAGGCGGCAGCCUUCGGUGGCGCGAUAGCGCCAACGUUCUCAACUAUGACACGCAAAACGCGUGCUCCGUUGAAUGGAGUUUAUCAUG

Variants of: B1
Experiment: polymerase ribozyme fitness, log enrichment relative to wild type (log ratio); higher = more active; in vitro selection for triplet polymerase activity
Method in brief: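 To select mutant libraries of each subunit of a heterodimeric triplet polymerase ribozyme, built by PCR and transcribed, each was annealed with a biotinylated primer, partner subunit and triplets, then incubated frozen at −7 °C. Extended constructs were gel-excised, captured on streptavidin beads and amplified by RT-PCR, in one round carried out in triplicate. Illumina sequencing of input and output libraries kept genotypes with ≥10 input reads and ≥1 read per output. Fitness is the base-2 logarithm of genotype enrichment relative to wild-type enrichment, from inverse-variance-weighted replicate averages.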

Point of comparison: C95U C99U, “polymerase ribozyme fitness (log ratio)” value -1.09. Against it:
- G94A U101C — higher, -0.823
- G94A U101G U109G A110U — lower, ≤ -4.2
- G94A U151G — lower, ≤ -4.2
- G94C — higher, -0.474
- G94C A97U G136U — lower, -3.38
- G94C A97U U111G A115U C149G — lower, ≤ -4.2
- G94C A98G G100A G141C — lower, ≤ -4.2
- G94C A98U C125G A142C U148A — lower, ≤ -4.2
- G94C A106C C116U — lower, -3.12
- G94C G100U — lower, -3.69
- G94C G128U — lower, -3.18
- G94C U101C A113G A115C G133A — lower, ≤ -4.2
- G94C U127G U148A A150G — lower, ≤ -4.2
- G94C U135A G141A — lower, -2.22
- G94U — higher, 1.12
- G94U C95A G141C U148C — lower, ≤ -4.2
- G94U C95U A120G U148C — lower, ≤ -4.2
- G94U C108G — lower, ≤ -4.2
- G94U C116G — higher, -0.502
- G94U C123G G141A U146C — lower, -2.83
- G94U C123U U148G — lower, ≤ -4.2
- G94U G140U — lower, -3.84
- G94U U151A — lower, ≤ -4.2
- G94U U151G — lower, ≤ -4.2
- C95A C96U A97G — lower, ≤ -4.2
- C95G A113G U127C U135G U146C A150U — lower, ≤ -4.2
- C95U A110U A113U A137C — lower, ≤ -4.2
- C95U A115U C116G G133U U135A U145A — lower, ≤ -4.2
- C95U A119G — higher, 0.353
- C95U A122U U146G U151A — lower, ≤ -4.2
- C95U C96A — within 0.2 log units, -1.02
- C95U C96U C118U C125A C129G — lower, ≤ -4.2
- C95U C99A — higher, -0.15
- C95U C99A G117U U148A — lower, ≤ -4.2
- C95U C99G C123U G126A U135G G143C C149A — lower, ≤ -4.2
- C95U C105A C116A — lower, ≤ -4.2
- C95U C116G G133U — lower, ≤ -4.2
- C95U C118U — the same, -1.09
- C95U C132A — lower, -2.32
- C95U G124C — higher, -0.723
- C95U U104G C108G — lower, ≤ -4.2
- C95U U104G G124U U151A — lower, ≤ -4.2
- C96A A98U C103G U109A A121U — lower, ≤ -4.2
- C96A A106G U109C — lower, ≤ -4.2
- C96A A122C U139G A150C — lower, -3.67
- C96A A150C — lower, -3.12
- C96A C99G C108G — lower, ≤ -4.2
- C96A C116U G136U A150G — lower, -4.06
- C96A C125G — higher, -0.535
- C96A G133C A137C — lower, ≤ -4.2
- C96A U134A — lower, -2.73
- C96A U134C A138G G141C — lower, -4.07
- C96A U145A — higher, 0.431
- C96A U146A U148A — lower, -4.17
- C96G A97U C118A — lower, -3.08
- C96G A106G C108G — lower, ≤ -4.2
- C96G A107G C118G A150C — lower, ≤ -4.2
- C96G A113G C116A A147U — lower, ≤ -4.2
- C96G A120C — higher, 0.168
- C96G A137U — lower, -4
- C96G A138C — lower, ≤ -4.2
- C96G C103G G124U G141U — lower, ≤ -4.2
- C96G C114A — lower, -4.19
- C96G C116A A138C A147C — lower, -3.36
- C96G C116G — higher, 0.127
- C96G G141A — higher, -0.288
- C96G U139G G140U C149A — lower, ≤ -4.2
- C96G U148A — lower, -3.53
- C96G U151A — lower, ≤ -4.2
- C96U A97U — higher, -0.832
- C96U A98G — lower, -1.3
- C96U A98U C99G C116G A150U — lower, ≤ -4.2
- C96U A110C A120U — lower, ≤ -4.2
- C96U A110U G124U C125G U144A — lower, ≤ -4.2
- C96U A121U U139A — lower, ≤ -4.2
- C96U A122C — higher, -0.314
- C96U A137U U146G — lower, ≤ -4.2
- C96U A147G — within 0.2 log units, -1.18
- C96U A147U — higher, 1.21
- C96U C99A G133C G141A — lower, ≤ -4.2
- C96U C103G C108A — lower, ≤ -4.2
- C96U C108A A115G — lower, ≤ -4.2
- C96U C123U G136U — lower, -2.2
